This is an account of results in PMC9831603.

Protein sequences, listed by entry. Tags and fused reporters are not part of them. Lines headed by an entry give the natural chain unless they say otherwise; changes in a name come on top. Chains listed by the source or under a name are the forms on record and can include a tag or linker.
UniProt P36405: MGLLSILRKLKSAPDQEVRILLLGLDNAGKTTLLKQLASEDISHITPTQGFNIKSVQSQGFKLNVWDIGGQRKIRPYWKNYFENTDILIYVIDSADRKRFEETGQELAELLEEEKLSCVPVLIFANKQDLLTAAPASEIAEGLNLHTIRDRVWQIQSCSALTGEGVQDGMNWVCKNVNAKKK
Arl3-D67V-FLAG (P36405, form named): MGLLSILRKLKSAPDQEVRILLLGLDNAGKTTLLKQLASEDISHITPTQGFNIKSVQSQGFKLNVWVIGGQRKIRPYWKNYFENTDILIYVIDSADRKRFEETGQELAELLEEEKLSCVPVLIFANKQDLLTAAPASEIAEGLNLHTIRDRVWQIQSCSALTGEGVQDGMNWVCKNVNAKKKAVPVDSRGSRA
Arl3-D129N-FLAG (P36405, form named): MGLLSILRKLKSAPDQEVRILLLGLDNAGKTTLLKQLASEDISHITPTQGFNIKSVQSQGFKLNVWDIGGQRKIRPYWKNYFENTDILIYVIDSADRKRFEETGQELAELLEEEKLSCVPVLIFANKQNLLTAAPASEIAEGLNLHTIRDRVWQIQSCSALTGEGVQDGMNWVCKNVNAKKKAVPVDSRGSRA
Arl3-Q71L-FLAG (P36405, form named): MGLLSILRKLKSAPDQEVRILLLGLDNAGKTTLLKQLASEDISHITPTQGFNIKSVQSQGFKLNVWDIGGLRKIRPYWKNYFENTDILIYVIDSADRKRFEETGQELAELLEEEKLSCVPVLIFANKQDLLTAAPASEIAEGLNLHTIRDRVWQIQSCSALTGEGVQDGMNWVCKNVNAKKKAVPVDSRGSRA
Arl3-T31N-FLAG (P36405, form named): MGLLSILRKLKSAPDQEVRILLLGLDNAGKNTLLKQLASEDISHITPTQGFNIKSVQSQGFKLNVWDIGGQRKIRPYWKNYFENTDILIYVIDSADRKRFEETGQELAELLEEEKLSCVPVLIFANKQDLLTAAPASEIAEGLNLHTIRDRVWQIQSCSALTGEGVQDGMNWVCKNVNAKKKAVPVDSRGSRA
Arl3-Y90C-FLAG (P36405, form named): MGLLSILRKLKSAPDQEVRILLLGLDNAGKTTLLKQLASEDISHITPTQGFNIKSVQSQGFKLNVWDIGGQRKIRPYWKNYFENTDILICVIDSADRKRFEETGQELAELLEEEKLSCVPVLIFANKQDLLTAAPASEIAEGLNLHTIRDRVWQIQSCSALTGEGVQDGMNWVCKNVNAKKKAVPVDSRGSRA
Arl3-T31N/Y90C-FLAG (P36405, form named): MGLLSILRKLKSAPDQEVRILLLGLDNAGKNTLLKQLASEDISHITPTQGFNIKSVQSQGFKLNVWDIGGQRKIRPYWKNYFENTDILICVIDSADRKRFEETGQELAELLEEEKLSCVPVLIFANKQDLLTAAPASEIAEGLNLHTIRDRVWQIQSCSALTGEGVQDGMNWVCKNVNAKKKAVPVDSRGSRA
Arl3-Y90C/R149H-FLAG (P36405, form named): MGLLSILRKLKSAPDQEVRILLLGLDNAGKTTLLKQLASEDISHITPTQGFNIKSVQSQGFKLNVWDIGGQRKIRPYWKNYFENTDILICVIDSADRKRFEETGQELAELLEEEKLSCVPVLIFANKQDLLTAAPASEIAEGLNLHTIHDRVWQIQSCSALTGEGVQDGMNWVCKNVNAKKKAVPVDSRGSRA
wild-type Arl3-FLAG (P36405, form named): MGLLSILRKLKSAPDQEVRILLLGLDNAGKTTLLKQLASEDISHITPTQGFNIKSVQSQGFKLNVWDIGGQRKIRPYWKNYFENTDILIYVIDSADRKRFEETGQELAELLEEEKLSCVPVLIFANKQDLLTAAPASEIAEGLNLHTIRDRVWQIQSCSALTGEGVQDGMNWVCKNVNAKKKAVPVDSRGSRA
UniProt Q640N2: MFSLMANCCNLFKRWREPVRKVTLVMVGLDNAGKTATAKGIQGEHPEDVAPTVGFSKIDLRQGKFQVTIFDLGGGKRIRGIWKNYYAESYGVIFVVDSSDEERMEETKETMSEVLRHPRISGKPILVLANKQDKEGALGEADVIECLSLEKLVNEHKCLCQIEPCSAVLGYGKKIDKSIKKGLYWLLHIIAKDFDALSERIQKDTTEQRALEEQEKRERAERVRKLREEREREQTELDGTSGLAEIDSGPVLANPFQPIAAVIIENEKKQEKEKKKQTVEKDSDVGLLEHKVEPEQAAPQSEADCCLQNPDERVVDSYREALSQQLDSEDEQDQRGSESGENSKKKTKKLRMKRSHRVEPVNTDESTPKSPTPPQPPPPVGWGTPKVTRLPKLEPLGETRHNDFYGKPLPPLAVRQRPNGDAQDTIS

These are yes or no findings as the source states them, for the method shown. In cells and extracts the contact can be indirect. Some entries that bind do so weakly or less than the wild type.

Test [1] addresses GST-PDEδ (human) (UniProt O43924). In words: pull-down; GST-PDEδ (50 µg) cross-linked with DSS to magnetic glutathione beads; cleared lysates of transfected AD-293 cells (20 mM Tris pH 7.5, 200 mM NaCl, 5 mM MgCl2, 0.5% Igepal), first incubated with GST beads, then 45 min at 4°C with GST-PDEδ beads; washed with Buffer M; immunoblot; only the target purified. (Immunoblotting shows a protein as a band on a membrane.)

For test [2] the target is unchanged. In words: pull-down; as the GST-PDEδ pull-down, but lysate first incubated with 65 mM MgCl2 and 10 mM GTP (no EDTA), 30°C 15 min; immunoblot for Arl3; only the target purified.
Test [3] has the same target. In words: pull-down; as the GST-PDEδ pull-down, but lysate first incubated with 10 mM EDTA and 10 mM GTP, 30°C 15 min, then MgCl2 added to 65 mM before the pull-down; immunoblot for Arl3; only the target purified.
For test [4], the target named is Arl3-T31N-FLAG (human) (UniProt P36405). In words: cross-linking + co-IP; in-cell DSS cross-linking and FLAG immunoprecipitation from AD-293 cells co-expressing Arl13B-GFP with Arl3-FLAG constructs (also with Arl3-T31N-myc); immunoblot.
In test [5] the target is Arl3-T31N/Y90C-FLAG (human) (UniProt P36405). The test is described as above.
Test [6] deals with Arl3-Y90C-FLAG (human) (UniProt P36405). Described as above.
Test [7] has as its target Arl3-T31N/Y90C-FLAG (human) (UniProt P36405). In words: co-IP; FLAG immunoprecipitation (magnetic FLAG beads, 2 hr 4°C, washes with 500 mM NaCl buffer, elution with 3X FLAG peptide) from lysates of AD-293 cells co-expressing Arl3-FLAG mutants and Arl13B-GFP or UNC119a-myc, not cross-linked; immunoblot.
Test [8] deals with Arl3-Y90C-FLAG (human) (UniProt P36405). The description is as above.
In test [9] the target is Arl3-Y90C/R149H-FLAG (human) (UniProt P36405). The test is described as above.

Consider “Arl3-D67V-FLAG (from UniProt P36405 1-182)”, for which the binding result in [1] is given as “binds”.

Turning to “Arl3-D129N-FLAG (from UniProt P36405 1-182)”, the binding entry in test [2] and in [3] was “binds” throughout.

Consider “Arl3-Q71L-FLAG (from UniProt P36405 1-182)”, for which the binding result in test [1] is recorded as “binds”.

For “Arl3-T31N-FLAG (from UniProt P36405 1-182)”, the binding entry in test [1] is recorded as “no binding”.

Turning to “Arl3-Y90C-FLAG (from UniProt P36405 1-182)”, the binding entry in test [2] is listed as “binds”; in test [3], “binds”; in test [1] it was “no binding (condition: lysate without added GTP)”.

Take Arl13B-GFP (from UniProt Q640N2 1-427): the binding entry in test [4] is “no binding”; in test [5], “binds”; in test [6], “binds”; in test [7] it was “binds”; in test [8], “binds”; in [9] it was “no binding”.

In the case of “endogenous Arl3 (from UniProt P36405 1-182)”, in test [3], the binding entry is recorded as “binds”.

Consider “wild-type Arl3-FLAG (from UniProt P36405 1-182)”, for which the binding result in test [3] is recorded as “binds”.
